This passage reports switch fluorescence ratio results from the supplement of paper PMC10126150.

Sequences with one replicate were seen in a single cluster, so their values are uncertain.

In the series the test system is ATP. The series can be described thus: switch fluorescence ratio, 500 uM ATP over buffer (Cy3 cluster intensity, sum of 5 cycles each) (fold (ratio)); higher = stronger signal-on switching upon ATP binding; sequences stand for … in TCGTCGGCAGCGTCAGATGTGTATAAGAGACAGTTTTTTTTTTTTTTTTTTTTTTTTT…TC. Conditions: aptamer strand: ATP DNA aptamer (quencher-CACCTGGGGGAGTATTGCGGAGGAAGG + anchor), 100 nM annealed; ATP concentration: 500 uM; one replicate. In a few lines:
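Exposure to 500 uM ATP lasted 15 min at 22 °C before imaging, and a selection-buffer image was taken beforehand, for Cy3-labelled switching-strand clusters on a modified Illumina MiSeq flow-cell annealed to 100 nM quencher-labelled ATP aptamer. Five buffer/ATP cycles were run with NaOH stripping and re-annealing between them. The fluorescence ratio per cluster is summed target-cycle over summed buffer-cycle Cy3 intensity, averaged per switch-domain sequence. Clusters outside 100-1000 RFU were excluded.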

Consider GGGGGCCCGC, for which the switch fluorescence ratio was 1.

In the case of AGGTCATCCA, the switch fluorescence ratio was 0.99. As for CAGGGTGACG, the switch fluorescence ratio stood at 0.95. As for AGCGATTTGT, the figure is 1.04; as for GGTGACTCGT, 1. Next, CGGTGATGTA: 1.33; TCCCAGACTG: 1.04. Turning to GACGTCCTGT, the switch fluorescence ratio turned out to be 1.03.

Consider CGCCATGTGG, for which the switch fluorescence ratio is 0.992. Turning to AGTTTCGAGG, the switch fluorescence ratio stood at 0.998. Next, TTTGCTAAT: 0.981; AAGGTCAGC: 1.02; CGCAGCTGAA: 1.87. Next, TCCAACGTCC: 1.17; GGCGCGGGTT: 0.967; TGTCCCAGCT: 1.02. As for GCACAGTTGG, the figure is 1.02; as for TATCGGGAAC, 1.01. As for CCGGCTCAGA, the switch fluorescence ratio was found to be 1.07. As for CCAGAAACAA, the figure is 1.09; as for GGTTCACTC, 1; as for AACCCTCAGT, 1.03. Next, GTCTCTCCAA: 1.05; GAAGTCGACC: 0.979; TTAGTATTTC: 0.973. Next, ACTTGATTAC: 1.06. As for TCCGGGATTG, the switch fluorescence ratio stood at 1.02. For the sequence CAAGGTCTGT, the switch fluorescence ratio is 0.998. For GTTCGTGACG, the switch fluorescence ratio stood at 0.982. Turning to CACAGGAAC, the switch fluorescence ratio turned out to be 1.05. As for TGAGATTTAT, the figure is 0.996; as for GTGCCTTGTG, 0.99.

Consider GCATAACAAG, for which the switch fluorescence ratio came out at 1.01. As for CCTAGGGCTT, the figure is 1.05; as for GGGATGCCCG, 0.938. As for CGTAAGTAAG, the figure is 0.98; as for CCATAGTACA, 1.11. As for TTCTCACCAA, the figure is 1.21; as for ACGAGGTGGT, 1.02; as for CAATGTGCGA, 0.999. As to AACTGATACG, the switch fluorescence ratio came out at 1.07. Regarding ACGCTGCGTG, the switch fluorescence ratio was 0.999. Take AATGTATGGT: the switch fluorescence ratio was found to be 0.963.

As to ATCCGCCTAT, the switch fluorescence ratio was 1.27. Next, TTGAGTAACG: 1.03; GACGTTGTCT: 0.967. As for CACTCGTTAT, the figure is 0.951; as for AATTAATTGA, 0.97; as for GTAATAGTGG, 1.

As to GACCCGGATA, the switch fluorescence ratio came to 1.08. As for TCGAAAGAG, the figure is 0.999. Next, AGGACACTCT: 1. Consider ACGTTGAACC, for which the switch fluorescence ratio is 1.16. Regarding ATGGGTTGAC, the switch fluorescence ratio is 0.961. Next, AGTTTGAAGT: 0.995; TGAATGTCAC: 1.02.

Regarding ATCACGAGCG, the switch fluorescence ratio turned out to be 1.04.

Take GTAGATGGCG: the switch fluorescence ratio came to 0.987. As for GCGCCACGAA, the figure is 1.05; as for ACTGCCGG, 1.02; as for ACGCGGTCGA, 1.1. Next, AGAGACGGGA: 1.1; TGTGAAGCCC: 0.973. Next, TAGGCTGCTC: 0.962; GGTAGGTGAA: 1.03. In the case of ATTTTAATAC, the switch fluorescence ratio came to 1.18. As for AAAATCGTTC, the figure is 1.02; as for GCCGGCATGT, 1.01; as for GCCCCTTGAT, 0.981. Next, CGGAAGAGCG: 0.981.

In the case of CTAACCCCAG, the switch fluorescence ratio came to 1.31. As to CGAATTCACC, the switch fluorescence ratio was determined as 1.07. Next, AACAGGACTT: 1.12. As for ACGACTGGAT, the figure is 1.06.

With ATGCAGTCGG, the switch fluorescence ratio came out at 1. TCTGAGCAGG: the switch fluorescence ratio came to 1.23.

As to TTCGCCTCTC, the switch fluorescence ratio is 1.25. As for ACTCTGCGTA, the figure is 2.27; as for ACCTGCTGAA, 1.06.
